From article PMC8641752
No constants are given. Whether binding was seen depends on the method and setting. Binding seen in cells or lysates may run through a third protein. Some results given as binding are weak or reduced against the parent protein; the word gives no strength. Tags and fused reporters may be left off the sequences shown.

T1: Hmg2-GFP (S. cerevisiae) (UniProt P12684)
T1 sequence (chain, polyubiquitin chain conjugated in cells (sites not printed)): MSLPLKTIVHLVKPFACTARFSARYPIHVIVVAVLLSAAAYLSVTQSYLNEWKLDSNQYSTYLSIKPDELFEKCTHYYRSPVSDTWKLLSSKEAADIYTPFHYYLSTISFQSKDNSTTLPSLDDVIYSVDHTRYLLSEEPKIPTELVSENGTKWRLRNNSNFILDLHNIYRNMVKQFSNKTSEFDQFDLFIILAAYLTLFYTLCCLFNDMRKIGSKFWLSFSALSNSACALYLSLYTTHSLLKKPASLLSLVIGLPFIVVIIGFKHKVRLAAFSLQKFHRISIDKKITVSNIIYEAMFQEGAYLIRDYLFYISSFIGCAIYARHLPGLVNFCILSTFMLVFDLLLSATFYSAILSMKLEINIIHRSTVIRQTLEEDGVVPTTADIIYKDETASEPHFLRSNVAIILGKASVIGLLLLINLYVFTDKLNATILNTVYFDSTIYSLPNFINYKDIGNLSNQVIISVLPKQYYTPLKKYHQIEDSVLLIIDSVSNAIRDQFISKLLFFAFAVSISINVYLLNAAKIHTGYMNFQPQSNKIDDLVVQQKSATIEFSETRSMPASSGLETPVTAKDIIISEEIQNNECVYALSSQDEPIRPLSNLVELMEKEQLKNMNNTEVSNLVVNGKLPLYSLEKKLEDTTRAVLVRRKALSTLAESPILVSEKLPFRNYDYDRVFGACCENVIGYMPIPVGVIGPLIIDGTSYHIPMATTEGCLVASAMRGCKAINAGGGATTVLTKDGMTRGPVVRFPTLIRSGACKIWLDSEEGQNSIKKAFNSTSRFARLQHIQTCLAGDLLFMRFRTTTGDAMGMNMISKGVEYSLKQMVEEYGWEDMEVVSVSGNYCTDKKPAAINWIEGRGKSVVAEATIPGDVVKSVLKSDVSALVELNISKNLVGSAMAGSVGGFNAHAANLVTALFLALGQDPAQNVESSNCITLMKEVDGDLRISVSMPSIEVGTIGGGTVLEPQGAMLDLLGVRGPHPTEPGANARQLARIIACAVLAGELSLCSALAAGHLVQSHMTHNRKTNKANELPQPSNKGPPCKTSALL

T2: Hrd1 (S. cerevisiae) (UniProt Q08109)
T2 sequence: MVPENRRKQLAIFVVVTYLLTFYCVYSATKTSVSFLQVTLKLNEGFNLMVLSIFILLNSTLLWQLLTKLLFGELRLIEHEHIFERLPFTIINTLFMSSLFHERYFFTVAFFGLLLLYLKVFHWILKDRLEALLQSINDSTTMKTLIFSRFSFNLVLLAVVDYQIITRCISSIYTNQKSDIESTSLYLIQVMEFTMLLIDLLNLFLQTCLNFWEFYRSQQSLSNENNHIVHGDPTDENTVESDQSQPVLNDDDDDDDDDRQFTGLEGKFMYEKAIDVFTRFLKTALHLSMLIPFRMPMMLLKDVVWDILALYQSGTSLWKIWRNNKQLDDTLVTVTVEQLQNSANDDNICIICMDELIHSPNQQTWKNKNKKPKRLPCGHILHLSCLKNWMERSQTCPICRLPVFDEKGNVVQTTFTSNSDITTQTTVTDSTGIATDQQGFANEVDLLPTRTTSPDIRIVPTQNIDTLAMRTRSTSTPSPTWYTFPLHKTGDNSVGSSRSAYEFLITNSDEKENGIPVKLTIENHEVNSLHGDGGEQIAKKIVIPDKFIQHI

T3: Hrd3 (S. cerevisiae) (UniProt Q05787)
T3 sequence: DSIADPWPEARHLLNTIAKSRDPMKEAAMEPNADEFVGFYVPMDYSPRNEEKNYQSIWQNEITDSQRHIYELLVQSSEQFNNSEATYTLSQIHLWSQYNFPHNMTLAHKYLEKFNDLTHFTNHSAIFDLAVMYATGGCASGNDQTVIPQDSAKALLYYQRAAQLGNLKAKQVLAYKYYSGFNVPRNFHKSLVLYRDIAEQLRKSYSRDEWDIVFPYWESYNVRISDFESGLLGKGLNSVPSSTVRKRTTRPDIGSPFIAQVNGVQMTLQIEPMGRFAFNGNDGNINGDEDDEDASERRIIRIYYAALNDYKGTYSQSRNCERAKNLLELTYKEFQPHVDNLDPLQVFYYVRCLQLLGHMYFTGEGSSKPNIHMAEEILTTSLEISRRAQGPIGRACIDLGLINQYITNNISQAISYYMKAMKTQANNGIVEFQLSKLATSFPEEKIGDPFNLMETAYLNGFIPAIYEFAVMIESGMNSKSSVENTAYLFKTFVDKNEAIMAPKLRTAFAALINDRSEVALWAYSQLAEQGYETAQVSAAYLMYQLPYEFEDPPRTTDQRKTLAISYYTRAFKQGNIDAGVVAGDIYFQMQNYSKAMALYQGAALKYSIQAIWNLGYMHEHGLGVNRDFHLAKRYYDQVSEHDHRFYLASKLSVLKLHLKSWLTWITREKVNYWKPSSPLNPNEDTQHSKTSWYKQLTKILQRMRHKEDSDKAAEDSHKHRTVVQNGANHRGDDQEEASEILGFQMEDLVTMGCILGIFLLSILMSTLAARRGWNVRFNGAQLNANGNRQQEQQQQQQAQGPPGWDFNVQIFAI


How the values were obtained:
Hmg2-GFP (S. cerevisiae) [1] = target: T1, Hmg2-GFP (S. cerevisiae); test: co-IP; substrate (Hmg2-GFP, Ste6*-GFP, CPY*-GFP with GFP-Trap; Pdr5*-Myc with Myc Trap) precipitated from yeast microsomes solubilised in Tween IP buffer (500 mM NaCl, 50 mM Tris pH 7.5, 10 mM EDTA, 1.5% Tween-20), overnight 4°C; blots with anti-HA, anti-Cdc48
Hrd1 (S. cerevisiae) = target: T2, Hrd1 (S. cerevisiae); test: co-IP; Dfm1 mutants with Hrd1 and Hrd3 of the HRD complex (Figure S1E); bait and conditions not told in the text shown
Hrd3 (S. cerevisiae) = target: T3, Hrd3 (S. cerevisiae); test: as above
Hmg2-GFP (S. cerevisiae) [2] = target: T1, Hmg2-GFP (S. cerevisiae); test: condition: only with added free Lys48-linked polyubiquitin chains (2, 5, and 10 μg); co-IP; free polyubiquitin competition test: solubilised microsomes incubated with Lys48-linked polyubiquitin chains (2, 5, 10 μg) or buffer for one hour at 4°C, then GFP-Trap precipitation of Hmg2-GFP; blots for Cdc48, Dfm1-HA
Hmg2-GFP (S. cerevisiae) [3] = target: T1, Hmg2-GFP (S. cerevisiae); test: condition: only after removal of the ubiquitin chain from Hmg2-GFP with Usp2Core; co-IP; solubilised microsomes treated with Usp2Core (5 μg, 1 hr, 37°C) to remove ubiquitin from Hmg2-GFP, then GFP-Trap precipitation of Hmg2-GFP; blots for ubiquitin, Cdc48, Dfm1-HA
Hmg2-GFP (S. cerevisiae) [4] = target: T1, Hmg2-GFP (S. cerevisiae); test: co-IP; free polyubiquitin competition test: solubilised microsomes incubated with Lys48-linked polyubiquitin chains (2, 5, 10 μg) or buffer for one hour at 4°C, then GFP-Trap precipitation of Hmg2-GFP; blots for Cdc48, Dfm1-HA

Binder | binding (Hmg2-GFP (S. cerevisiae) [1]) | binding (Hrd1 (S. cerevisiae)) | binding (Hrd3 (S. cerevisiae)) | binding (Hmg2-GFP (S. cerevisiae) [2]) | binding (Hmg2-GFP (S. cerevisiae) [3]) | binding (Hmg2-GFP (S. cerevisiae) [4])
Dfm1-HA (protein, UniProt Q12743 1-341) MAGPRNVRTLHGNGGRNNDVMGPKEFWLNIPPITRTLFTLAIVMTIVGRLNLINPWYFIYVWNLTFKKVQIWRLLTSCVMLSSRAMPALMELYSIYDRSSQLERGHFGPGLSNRRGPMVTVDYAYYLCFCILAITTATTIIYGSYYPVVLTSGFISCITYTWSIDNANVQIMFYGLIPVWGKYFPLIQLFISFVFNEGDFVISLIGFTTGYLYTCLDTHTLGPIWGMISRKADPTYGISPNGKFSTPWWFTSLYARITGAHNETATFNNNFANVPSSQRETRTFSGRGQRLGTAPATLSQTSGTDSGRASGSQLRSGPSNLNQFQGRGQRVGQTNSPSDSQ | binds | binds | binds | no binding | no binding | binds
Dfm1-Q101R (protein, UniProt Q12743 1-341) MAGPRNVRTLHGNGGRNNDVMGPKEFWLNIPPITRTLFTLAIVMTIVGRLNLINPWYFIYVWNLTFKKVQIWRLLTSCVMLSSRAMPALMELYSIYDRSSRLERGHFGPGLSNRRGPMVTVDYAYYLCFCILAITTATTIIYGSYYPVVLTSGFISCITYTWSIDNANVQIMFYGLIPVWGKYFPLIQLFISFVFNEGDFVISLIGFTTGYLYTCLDTHTLGPIWGMISRKADPTYGISPNGKFSTPWWFTSLYARITGAHNETATFNNNFANVPSSQRETRTFSGRGQRLGTAPATLSQTSGTDSGRASGSQLRSGPSNLNQFQGRGQRVGQTNSPSDSQ | binds | binds | binds | – | – | –
Dfm1-F107S (protein, UniProt Q12743 1-341) MAGPRNVRTLHGNGGRNNDVMGPKEFWLNIPPITRTLFTLAIVMTIVGRLNLINPWYFIYVWNLTFKKVQIWRLLTSCVMLSSRAMPALMELYSIYDRSSQLERGHSGPGLSNRRGPMVTVDYAYYLCFCILAITTATTIIYGSYYPVVLTSGFISCITYTWSIDNANVQIMFYGLIPVWGKYFPLIQLFISFVFNEGDFVISLIGFTTGYLYTCLDTHTLGPIWGMISRKADPTYGISPNGKFSTPWWFTSLYARITGAHNETATFNNNFANVPSSQRETRTFSGRGQRLGTAPATLSQTSGTDSGRASGSQLRSGPSNLNQFQGRGQRVGQTNSPSDSQ | binds | binds | binds | – | – | –
Dfm1-F58S (protein, UniProt Q12743 1-341) MAGPRNVRTLHGNGGRNNDVMGPKEFWLNIPPITRTLFTLAIVMTIVGRLNLINPWYSIYVWNLTFKKVQIWRLLTSCVMLSSRAMPALMELYSIYDRSSQLERGHFGPGLSNRRGPMVTVDYAYYLCFCILAITTATTIIYGSYYPVVLTSGFISCITYTWSIDNANVQIMFYGLIPVWGKYFPLIQLFISFVFNEGDFVISLIGFTTGYLYTCLDTHTLGPIWGMISRKADPTYGISPNGKFSTPWWFTSLYARITGAHNETATFNNNFANVPSSQRETRTFSGRGQRLGTAPATLSQTSGTDSGRASGSQLRSGPSNLNQFQGRGQRVGQTNSPSDSQ | no binding | binds | binds | – | – | –
Dfm1-L64V (protein, UniProt Q12743 1-341) MAGPRNVRTLHGNGGRNNDVMGPKEFWLNIPPITRTLFTLAIVMTIVGRLNLINPWYFIYVWNVTFKKVQIWRLLTSCVMLSSRAMPALMELYSIYDRSSQLERGHFGPGLSNRRGPMVTVDYAYYLCFCILAITTATTIIYGSYYPVVLTSGFISCITYTWSIDNANVQIMFYGLIPVWGKYFPLIQLFISFVFNEGDFVISLIGFTTGYLYTCLDTHTLGPIWGMISRKADPTYGISPNGKFSTPWWFTSLYARITGAHNETATFNNNFANVPSSQRETRTFSGRGQRLGTAPATLSQTSGTDSGRASGSQLRSGPSNLNQFQGRGQRVGQTNSPSDSQ | no binding | binds | binds | – | – | –
Dfm1-K67E (protein, UniProt Q12743 1-341) MAGPRNVRTLHGNGGRNNDVMGPKEFWLNIPPITRTLFTLAIVMTIVGRLNLINPWYFIYVWNLTFEKVQIWRLLTSCVMLSSRAMPALMELYSIYDRSSQLERGHFGPGLSNRRGPMVTVDYAYYLCFCILAITTATTIIYGSYYPVVLTSGFISCITYTWSIDNANVQIMFYGLIPVWGKYFPLIQLFISFVFNEGDFVISLIGFTTGYLYTCLDTHTLGPIWGMISRKADPTYGISPNGKFSTPWWFTSLYARITGAHNETATFNNNFANVPSSQRETRTFSGRGQRLGTAPATLSQTSGTDSGRASGSQLRSGPSNLNQFQGRGQRVGQTNSPSDSQ | no binding | binds | binds | – | – | –
